The experiment deals with wild type yeast carrying plasmid SEC14 variants. The experiment is described as follows: Growth inhibition titration of yeast re-transformed with plasmids coding for SEC14 variants. The settings on record: Saccharomyces cerevisiae, 18 h.

Among the data in article PMC5147771, “High-Resolution Genetics Identifies the Lipid Transfer Protein Sec14p as Target for Antifungal Ergolines” (PLoS Genetics, 2016) are IC50 values, retold here.

SMILES strings stand for the structures. pIC50: −log10 of the molar value. Like-named read-outs stand apart in the source and are kept apart here.

`COC(=O)C1CC2c3ccc([N+](=O)[O-])c4c3C(CC2N(C)C1)CN4C(=O)OCC(Cl)(Cl)Cl` (centres unmarked) [NGx04]: the pIC50 (read-out: IC50, SEC14 Y111H) is 3.63 and the pIC50 (read-out: IC50, SEC14 Y151H) is 3.58.

One may read the pIC50 as −log10 of the IC50, conventionally taken in molar units.
